Laboratory results reported in PubChem BioAssay AID485341 (National Center for Advancing Translational Sciences (NCATS), 2010).
Out of some 330,000 compounds screened, about 1,700 (0.52%) were called active. This list was built around the results that the source calls inconclusive (neither active nor inactive); the mix of calls is not that of the screen. Calls follow the shape of the dose curve; as a rule, active = well fitted inhibition curve with a large enough effect; inconclusive = small, poorly fitted or top-dose-only effect; inactive = no such curve, though single readings can be large or run the other way. Where the call is inconclusive, the potency comes from a doubtful curve fit.

The compounds below were run against Beta-lactamase (Escherichia coli (strain K12)) (UniProt P00811) (assay: qHTS Inhibitors of AmpC Beta-Lactamase (assay without detergent)). Settings: AmpC nitrocefin hydrolysis, absorbance 480 nm, 0.0001% Triton; activity change, negative = inhibition: at 57.1 µM (top of the series) unless noted.
Chain of UniProt P00811 (P00811 whole entry, looked up): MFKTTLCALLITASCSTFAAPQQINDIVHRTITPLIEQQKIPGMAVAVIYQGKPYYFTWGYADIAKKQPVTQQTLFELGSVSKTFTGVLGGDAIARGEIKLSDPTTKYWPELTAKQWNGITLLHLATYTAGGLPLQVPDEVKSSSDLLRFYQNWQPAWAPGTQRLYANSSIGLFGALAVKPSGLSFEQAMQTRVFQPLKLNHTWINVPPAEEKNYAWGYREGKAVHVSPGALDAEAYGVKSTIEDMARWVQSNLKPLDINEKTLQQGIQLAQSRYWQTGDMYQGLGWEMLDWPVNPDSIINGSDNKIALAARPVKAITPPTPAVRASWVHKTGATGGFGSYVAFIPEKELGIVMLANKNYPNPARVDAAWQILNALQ
Summary of the method: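 AmpC (5.3 nM in the dispensed reagent) in 20 mM phosphate pH 7.0 with 0.01% (detergent screen) or 0.0001% Triton X-100 was preincubated with compounds for 15 min at room temperature. Nitrocefin was then added from an 800 uM solution, and hydrolysis was followed at 480 nm.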
Also: nearly all actives have a fitted effect of over 20% in size.
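For activity change, negative = inhibition in this document: plate controls were no compound for no effect and no enzyme for full effect.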
Potency is read from the fitted curve at half-maximal effect; tags tell the direction and shape of the fitted curve.

SMILES | activity change, negative = inhibition | Potency
Cc1cc(N2CCN(C)CC2)nc2ccc(NC(=S)NC3CC3)cc12 | inactive: -18.5% | 
O=C(Cn1ccc2ccccc2c1=O)NCC1COc2ccccc2O1 (stereo not given) |  | inconclusive: 6.31 µM [inhibitor, single point]
COc1ccc2c(c1)c(CC(=O)Nc1ccc(C(C)=O)cc1)c(C)n2C(=O)c1ccc(Cl)cc1 |  | inconclusive: 3.55 µM [inhibitor, single point]
CCN(CC)CCCn1c2c(c(SCC(=O)Nc3nc4ccccc4s3)nc1=O)CCC2 |  | inconclusive: 39.8 µM [inhibitor, single point]
O=C(COC(=O)c1cc(S(=O)(=O)N2CCCC2)ccc1O)Nc1ccc(SC(F)F)cc1 |  | inconclusive: 14.1 µM [inhibitor, partial curve]
O=C1/C(=C\c2ccc(-c3ccccc3Cl)o2)SC(=S)N1CC1CCCO1 (stereo not given) | inactive: -28.4% | 
Cc1cc(C)n(Cc2ccc(C(=O)O)cc2)n1 | inactive: -13.7% | 
Cn1cc([N+](=O)[O-])c(C(=O)N/N=C/c2ccc3c(c2)OCO3)n1 | inactive: -10.5% | 
Cc1[nH]n(-c2ncc(-c3ccc(Cl)cc3)s2)c(=O)c1C(c1ccc(Cl)cc1)C(C#N)C#N (stereo not given) |  | active: 39.8 µM
O=C(Nc1cccc(C(F)(F)F)c1)Oc1ccccc1N1CCOCC1 |  | inconclusive: 4.47 µM [inhibitor, full curve, poor fit]
O=[N+]([O-])c1ccc(N2CCN(S(=O)(=O)c3ccccc3)CC2)cc1NCc1ccco1 | inactive: -17.5% | 
O=[N+]([O-])c1c(Nc2ccccc2)ccc2nonc12 |  | inconclusive: 0.126 µM [inhibitor, full curve, poor fit]
Cc1ccc2nc(C3CCN(CC(=O)N4CCCCCC4)CC3)[nH]c2c1 |  | inconclusive: 6.31 µM [inhibitor, single point]
CCCC1=NN2C(=N)/C(=C\c3ccc(OCCOc4ccc(NC(C)=O)cc4)c(OC)c3)C(=O)N=C2S1 |  | inconclusive: 8.91 µM [inhibitor, partial curve]
CSc1cccc(NC(=O)CSc2ccc(C)cc2)c1 |  | inconclusive: 11.2 µM [inhibitor, partial curve, poor fit]
COc1ccc(N2CCN(C(=O)Nc3ccc(S(=O)(=O)N(C)C)cc3)CC2)cc1 |  | inconclusive: 6.31 µM [inhibitor, single point]
Cc1ccc(S(=O)(=O)Nc2ccc(-c3nc4ccc(C)cc4s3)cc2)cc1 |  | inconclusive: 35.5 µM [inhibitor, single point]
CCc1cc(=O)oc2cc(C)cc(OC(C)C(=O)NCC(O)c3ccccc3)c12 (stereo not given) | inactive: 22.5% | 
O=C(Cc1ccc(S(=O)(=O)N2CCCCC2)s1)Nc1cccc2ccccc12 |  | inconclusive: 35.5 µM [inhibitor, single point]
CN(C)C(CNS(=O)(=O)c1ccc(F)cc1)c1cccnc1 (stereo not given) |  | inconclusive: 3.55 µM [inhibitor, full curve, poor fit]
CSc1n[nH]c(NCc2ccccc2)n1 | inactive: -3.52% | 
CCCCn1nc2cc(C(=O)NCC34CC5CC(CC(C5)C3)C4)ccc2c1OCC |  | inconclusive: 5.01 µM [inhibitor, single point]
Cc1onc(-c2ccccc2Cl)c1C(=O)N[C@@H]1C(=O)N2[C@@H]1SC(C)(C)[C@@H]2C(=O)O |  | active: 0.794 µM

SMILES | activity change, negative = inhibition | Potency
Clc1ccc(OCCSc2ncccn2)cc1 | inactive: -11% | 
COc1ccc(Cn2c(=O)[nH]c3cc(C(=O)N4CCN(c5ccc(C(C)=O)cc5)CC4)ccc3c2=O)cc1 | inactive: -0.175% | 
CCOc1cc(/C=N/NC(=O)CSc2cccc3cccnc23)ccc1O |  | inconclusive: 11.2 µM [inhibitor, partial curve]
COc1ccc(N2CCN(c3oc(-c4ccccc4OC)nc3C#N)CC2)cc1 |  | inconclusive: 8.91 µM [inhibitor, single point]
C=CCN(C(=O)c1ccccn1)C(C(=O)NCc1ccccc1)c1ccccc1F (stereo not given) | inactive: -0.659% | 
CCCCn1nc2cc(C(=O)NCc3cc(C(F)(F)F)cc(C(F)(F)F)c3)ccc2c1OC |  | active: 5.62 µM
NS(=O)(=O)c1ccc(NC(=O)c2ccc(S(=O)(=O)N3CCc4ccccc43)cc2)cc1 |  | active: 17.8 µM
Cc1ccc(-c2[nH]ncc2/C=N/n2c(COc3ccccc3C)nc3ccccc3c2=O)cc1 |  | active: 8.91 µM
Nc1cc(-c2ccc(Cl)cc2)nn1S(=O)(=O)c1cccc2nsnc12 |  | active: 22.4 µM
O=S(=O)(c1ccccc1)[C@@]1(c2ccccc2)C[C@@H]2ON=C(c3cccc(-c4ccccc4)c3)[C@@H]2C1 | inactive: -41.3% | 
COC(=O)c1ccc(C23CC4(C2)[C@H](CN(CC2CCCCC2)[C@@H]4c2ccccc2)C3c2ccc(Cl)nc2)cc1 (stereo not given in full) | inactive: 6.16% | 
CC1CN(C)C(C)C/C1=N\Oc1ccc([N+](=O)[O-])cc1 (stereo not given) | inactive: -7.08% | 
O=C(O)CNS(=O)(=O)c1ccc(Br)s1 | inactive: -2.76% | 
COc1ccc(-c2cc(C(F)(F)F)nc(SCC(=O)Nc3sc4c(c3C#N)CCC4)n2)cc1 |  | inconclusive: 3.98 µM [inhibitor, single point]
CCN1CCN(Cc2nc3c(c(=O)n(C)c(=O)n3C)n2Cc2cccc3ccccc23)CC1 |  | active: 0.158 µM
COc1ccc(/C=C(\C#N)C(=O)OCC(=O)NCc2ccccc2OC)cc1 |  | active: 31.6 µM
CCc1ccc(NC(=O)CSc2nc(=O)n3cc(C)ccc3n2)cc1 |  | inconclusive: 39.8 µM [inhibitor, single point]
Cc1ccccc1-c1n[nH]c(=S)n1/N=C/C=C/c1ccco1 |  | active: 10 µM
N#CC1=C(N)SC(N)=C(C#N)C1CCC1CCCCC1 |  | inconclusive: 35.5 µM [inhibitor, partial curve]
CS(=O)(=O)N(CC(=O)NCc1ccc2c(c1)OCO2)c1ccccc1 |  | inconclusive: 0.282 µM [inhibitor, full curve, poor fit]
O=C1CC(NS(=O)(=O)c2cccs2)CN1c1cccc(F)c1 (stereo not given) |  | inconclusive: 35.5 µM [inhibitor, single point]
Cc1cccc(NC(=O)C2CCN(C(=O)c3ccc(F)cc3)CC2)n1 |  | inconclusive: 39.8 µM [inhibitor, single point]
